The text below walks through data of paper PMC4336329 (PLoS ONE, 2015).

In all, about 310,000 compounds went through this assay and about 14,000 (4.5%) showed an effect of 50% or more. Effects have a minus sign here. Some of the results follow.
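Note: peak tail current of the secondary pulse compared with the same well before compound.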

The target in this assay is human ether-à-go-go-related gene (hERG) potassium channel (human, UniProt Q12809). Put plainly: primary screen, population patch clamp on CHO cells stably expressing hERG.
Chain of human ether-à-go-go-related gene (hERG) potassium channel (Q12809 whole entry, looked up): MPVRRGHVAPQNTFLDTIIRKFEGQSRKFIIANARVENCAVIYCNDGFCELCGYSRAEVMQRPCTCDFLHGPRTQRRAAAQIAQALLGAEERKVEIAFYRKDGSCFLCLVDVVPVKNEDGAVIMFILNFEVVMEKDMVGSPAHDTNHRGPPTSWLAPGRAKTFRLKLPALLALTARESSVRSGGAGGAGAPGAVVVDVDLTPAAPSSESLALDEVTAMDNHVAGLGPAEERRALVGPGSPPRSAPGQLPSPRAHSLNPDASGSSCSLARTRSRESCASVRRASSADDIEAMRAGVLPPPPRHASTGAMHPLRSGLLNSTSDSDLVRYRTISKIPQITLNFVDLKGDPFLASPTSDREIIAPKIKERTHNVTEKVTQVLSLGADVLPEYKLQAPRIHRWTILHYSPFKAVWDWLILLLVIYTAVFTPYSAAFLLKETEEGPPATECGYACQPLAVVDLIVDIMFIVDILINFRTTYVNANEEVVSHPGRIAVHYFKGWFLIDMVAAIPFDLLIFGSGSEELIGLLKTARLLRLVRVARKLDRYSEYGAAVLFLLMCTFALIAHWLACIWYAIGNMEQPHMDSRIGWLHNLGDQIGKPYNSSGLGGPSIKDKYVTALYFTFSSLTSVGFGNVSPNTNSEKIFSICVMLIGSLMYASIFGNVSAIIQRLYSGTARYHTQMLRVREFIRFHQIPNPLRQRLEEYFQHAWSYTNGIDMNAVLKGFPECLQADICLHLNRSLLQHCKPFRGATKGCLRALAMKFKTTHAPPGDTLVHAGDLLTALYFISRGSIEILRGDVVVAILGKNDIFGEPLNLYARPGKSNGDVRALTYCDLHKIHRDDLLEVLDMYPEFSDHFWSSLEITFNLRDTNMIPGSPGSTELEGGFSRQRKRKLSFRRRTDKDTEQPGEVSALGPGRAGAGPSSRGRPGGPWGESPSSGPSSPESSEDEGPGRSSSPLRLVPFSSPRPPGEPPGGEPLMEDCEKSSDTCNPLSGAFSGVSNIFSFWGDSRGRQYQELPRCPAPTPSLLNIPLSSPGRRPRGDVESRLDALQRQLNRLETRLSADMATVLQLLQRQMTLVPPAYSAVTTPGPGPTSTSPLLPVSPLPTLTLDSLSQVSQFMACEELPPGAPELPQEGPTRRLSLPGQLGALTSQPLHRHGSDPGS
Regarding `Cc1nc(CCNC(=O)CC2C(=O)NCCN2Cc2ccoc2)nc2c1CCCC2` (stereo not drawn), the “hERG current change (%, negative = inhibition) at 10uM” value is given as -36.7%.
For `O=c1c2ccsc2ncn1Cc1cccc(C(F)(F)F)c1` the value was -15.9%; for `Cn1cc(CN2CCC(n3nccc3NC(=O)CCOc3ccccc3)CC2)cn1`, 17.1%.
For `O=C(Cc1c(F)cccc1Cl)NNC(=O)c1ccccc1Cl` the value was -0.796%; for `C/C(=N/NC(=O)Cc1cccc2ccccc12)c1cccs1`, 6.33%; for `C=CCN1CCN(C(=O)CSc2ccccc2)CC1`, 10.5%.
For `O=C(CN(Cc1ccccc1)C(=O)c1ccco1)NCc1ccc(F)cc1` the value was -31.6%.
Consider `O=C(c1cccc(NS(=O)(=O)c2ccc(F)c(F)c2)c1)N1CCN(Cc2ccccc2)CC1`, for which the “hERG current change (%, negative = inhibition) at 10uM” value is given as -26.8%.
Next, `COc1ccc(CNC(=O)c2ccc(-c3ccccc3)cc2)cc1`: 16%; `COc1ccc(C(=O)Nn2c(C)nc3ccccc3c2=O)cc1Br`: -7.54%; `CS(=O)CCC(NS(=O)(=O)c1ccccc1)C(=O)O` (stereo not drawn): 20.4%.
Regarding `Cc1cccc(C)c1NS(=O)(=O)c1cc2c3c(c1)CC(=O)N3CCC2`, the “hERG current change (%, negative = inhibition) at 10uM” value is on record as -12.2%.
With `COc1ccccc1C1C(C(=O)c2cc3ccccc3o2)=C(O)C(=O)N1c1cc(C)on1` (stereo not drawn), the “hERG current change (%, negative = inhibition) at 10uM” value came to 16.9%.
As to `O=C1COc2ccc(S(=O)(=O)NCCc3ccccc3)cc2N1`, the “hERG current change (%, negative = inhibition) at 10uM” value was 10.7%.
Next, `Cc1cccc(CSc2nnc(-c3ccccn3)n2N)c1`: 2.88%; `COc1ccc2c(c1)[C@H]1[C@H](CO2)[C@H](c2ccccc2)[C@]2(C)C(=O)Nc3cc(Cl)ccc3C(=O)N12`: -15%; `CCCOc1ccc(Cn2ccnc2)cc1[N+](=O)[O-]`: -52.3%.
As for `COC(=O)c1ccc(CN2C(=O)NC3(CCCCC3)C2=O)cc1`, the “hERG current change (%, negative = inhibition) at 10uM” value was 11.2%.
For `O=c1c2c3c(sc2nc(N2CCNCC2)n1CCc1ccccc1)CCCCC3` the value was -0.343%; for `COc1ccc(C2/C=C\CNCC(=O)N2Cc2ccc(F)cc2)cc1` (stereo not drawn), -0.0236%.
For `Cc1cc(C)cc(NC(=O)N2CCN(C/C=C/c3ccccc3)CC2)c1` the value was -69%; for `CC(=O)N(CCCNC(=O)c1ccccc1)C(=O)c1ccccc1`, 7.46%; for `COC(=O)CSc1ccc2nnc(-c3ccc(OC)c(OC)c3)n2n1`, -26.4%.
For `COCCNC(=O)CN(C(=O)Cn1nnc2ccccc21)c1ccccc1C` the value was 22.5%; for `COc1ccc(C(=O)Nc2cc(C)ccc2NC(=O)COc2ccccc2)cc1`, 4.16%; for `Cl.OC(COCC1COc2ccccc2O1)CN1CCN(c2ccccc2F)CC1` (stereo not drawn), -58.9%.
Consider `COC(=O)[C@@]1(Cc2ccc(OC)cc2)[C@@H]2C(=CC(=O)[C@H]2CC(=O)C(=O)N(C)C)CN1C(=O)c1ccccc1`, for which the “hERG current change (%, negative = inhibition) at 10uM” value was -35.9%.
For `O=C(N/N=C/c1ccncc1)c1cccc(NC(=O)c2ccccc2Cl)c1` the value was -2.33%; for `O=C(Nc1ccc(-c2cc3ccccc3oc2=O)c(Cl)c1)c1cccnc1`, 2.92%.
Turning to `CCCCC1CCC(c2nc(-c3ccccn3)no2)CC1` (stereo not drawn), the “hERG current change (%, negative = inhibition) at 10uM” value is -11.2%.
For `COc1ccc(S(=O)(=O)N(C)c2ccc(C(=O)Nc3cccnc3)cc2)cc1OC` the value was 9.44%; for `N/C(=N\OCc1ccc([N+](=O)[O-])cc1)c1ccncc1`, -17.6%; for `O=C(c1ccc(Cl)cc1)C1CCCN(Cc2cccn2-c2cccnc2)C1` (stereo not drawn), -42%.
Next, `CC1CC(C)(C)NC(=S)N1CCC(=O)NCc1ccc(Cl)cc1` (stereo not drawn): -15.2%.
For `Cc1cc(N)n(-c2ncnc3scc(-c4ccc(Cl)cc4)c23)n1` the value was 2.62%.
As for `O=C(/C=C/c1ccc(O)c(O)c1)OC1C(O)CC(OC(=O)/C=C/c2ccc(O)c(O)c2)(C(=O)O)CC1O` (stereo not drawn), the “hERG current change (%, negative = inhibition) at 10uM” value is 11.1%.
For `CC(=O)OCC#CCSc1nc2ccccc2n1C` the value was 8.56%; for `CCOCCc1c(O)[nH]c(=S)[nH]c1=O`, 11.4%.
For `COc1ccc(/C=N/Nc2nncc3ccccc23)cc1` the value was -3.41%; for `CC(C)(C)n1nc2c(c1NC(=O)c1cccc(Cl)c1)CS(=O)(=O)C2`, -4.42%; for `O=C(N/N=C/c1ccc([N+](=O)[O-])o1)c1cc2ccccc2o1`, -42.1%.
Next, `Cc1ccc(C(=O)NCC(C)NC(=O)c2ccc(C)c([N+](=O)[O-])c2)cc1[N+](=O)[O-]` (stereo not drawn): 7.96%; `CC(C)(C)C1CCC(=NNC(=O)CC(=O)NCc2ccccc2)CC1` (stereo not drawn): 1.84%; `C#CCOCCOCCOCCNc1nc(N2CCN(C(=O)[C@H](Cc3ccc(O)cc3)n3cc([C@@H](N)C(C)CC)nn3)CC2)nc(N2CCN(C(=O)[C@H](Cc3cc4ccccc4[nH]3)n3cc([C@@H](N)C(C)CC)nn3)CC2)n1.Cl` (stereo partly drawn): -0.883%.
Turning to `COc1ccc(S(N)(=O)=O)cc1C(=O)NC1CCCc2ccccc21` (stereo not drawn), the “hERG current change (%, negative = inhibition) at 10uM” value is listed as 7.58%.
For `COc1ccc(C)cc1-n1nnnc1SCc1cc(=O)n2cc(C)ccc2n1` the value was -51.1%; for `O=C(Nc1nc2ccccc2[nH]1)c1ccccc1`, 14.5%; for `OCC1(CCOc2ccccc2)CCN(Cc2cn[nH]c2-c2ccccc2)CC1`, -74.4%.
Next, `COC(=O)Cn1cc(C#N)c2ccccc21`: 0.537%; `Cc1c(C2=CCN(S(=O)(=O)c3ccc(Br)cc3)CC2)c2ccccc2n1C`: 13.9%; `CC(C)(C)Nc1nc(Oc2ccc(=O)[nH]n2)nc(N2CCOCC2)n1`: -9.07%.
For `CC(C)c1nc(CNC(=O)CCc2nnc(-c3ccsc3)o2)cs1`, the “hERG current change (%, negative = inhibition) at 10uM” value is reported as -2.35%.
For `Cc1ccc(NC(=O)CSCC#N)cc1Cl` the value was -3.66%; for `S=c1[nH]nc(-c2cccnc2)n1/N=C/c1ccco1`, 4.27%; for `O=C(CCCSc1nc(-c2ccco2)cc(C(F)(F)F)n1)NCc1cccs1`, -1.45%.
Consider `NC(=O)CC(NC(=O)Cc1ccc(Br)cc1)c1ccc(NCc2cc(F)ccc2F)c([N+](=O)[O-])c1` (stereo not drawn), for which the “hERG current change (%, negative = inhibition) at 10uM” value is -6.46%.
Next, `COc1cc(NC(=O)c2cncc(-c3ccc(C#N)cc3)c2)cc(C(=O)Nc2cccc(C(F)(F)F)c2)c1`: 0.953%; `CC1CN(C(=O)C2(C)CC2(Cl)Cl)CC(C)O1` (stereo not drawn): 5.62%; `CCOc1cccc(-c2c(C(=O)N/N=C/c3ccsc3)nnn2-c2nonc2N)c1`: 20.4%.
Next, `COCCN(CC(=O)Nc1cccc(C)c1C)C(=O)Cc1sc(C)nc1-c1ccc(F)cc1`: -2%.
Next, `Cc1noc(C)c1S(=O)(=O)N1CCC(C(=O)N2CCN(c3ccc(F)cc3)CC2)CC1`: -41.4%.
With `Cc1ccccc1NC(=O)Cc1nc(COC(=O)c2ccccn2)cs1`, the “hERG current change (%, negative = inhibition) at 10uM” value is recorded as -15.8%.
For `O=C(CN1CCCC1=O)NC1CCCc2c1cnn2-c1cc(F)cc(F)c1` (stereo not drawn) the value was 5.86%; for `NC(=O)NC(=O)CSc1nc2sc(-c3ccccc3)cc2c(=O)n1-c1ccccc1`, 4.69%.
For the compound `COCc1[nH][nH]c(=O)c1C=Nc1ccc(Oc2ccccc2)cc1`, the “hERG current change (%, negative = inhibition) at 10uM” value was -26.7%.
As for `O=C(NC1CCCc2ccccc21)C1CCN(C(=O)c2sccc2-n2cccc2)CC1` (stereo not drawn), the “hERG current change (%, negative = inhibition) at 10uM” value was -23%.
For `CCOc1ccc(C(=O)NCCN2CCCC2)cc1.Cl` the value was -40.6%; for `COc1cc(CNC(=O)CCCC(=O)c2ccccc2)cc(OC)c1OC`, 10.8%.
Next, `Cc1ccc(NC(=O)/C=N/OCC(=O)NCc2ccccc2Cl)cc1`: 2.92%; `CCCOc1ccc(C(=O)Nc2ccc(N3CCN(C(C)=O)CC3)cc2)cc1`: 5.39%.
For `Cc1ccc(C(=O)c2c[nH]c(C(=O)NCc3cccnc3)c2)cc1` the value was -15%.
As to `COc1ccc(N2CCC(CNC(=O)Nc3ccc(Cl)cc3)C2)cc1` (stereo not drawn), the “hERG current change (%, negative = inhibition) at 10uM” value is on record as 11.5%.
Next, `O=C(OCC(=O)N1CCCC1=O)c1ncc(Cl)c(Cl)c1Cl`: 0.304%; `CCN(CC)S(=O)(=O)c1ccc(N2CCOCC2)c(NC(=O)c2ccc(C#N)cc2)c1`: -34.3%.
Next, `CCCCCn1c(=O)c(C(=O)Nc2ccccn2)c(O)c2ccccc21`: 26.4%; `CCOc1cc(C2NC(=O)NC(C)=C2C(=O)OCc2ccccc2)ccc1O` (stereo not drawn): -16.6%.
For `CCN(Cc1ccncc1)C(=O)CCc1nnc(CCc2ccccc2OC)o1`, the “hERG current change (%, negative = inhibition) at 10uM” value was -4.64%.
On to `N#Cc1c(N)oc(-c2ccc3c(c2)OCO3)c1-c1ccc2c(c1)OCO2`, for which the “hERG current change (%, negative = inhibition) at 10uM” value is -6.64%.
Next, `O=C(CSc1n[nH]c(=O)n1-c1ccccc1)Nc1ccccc1`: 5.91%.
Next, `Cc1cccc(C)c1OCC(=O)NCC1COc2ccccc2O1` (stereo not drawn): -27.8%; `Cc1ccc(C(=O)OC(C)C(=O)NC2CCCCC2C)cc1S(=O)(=O)N1CCCCC1` (stereo not drawn): -9.95%.
`CC(C)N(C(=O)Cn1cc(SCC(=O)NCC2CCCO2)c2ccccc21)C(C)C` (stereo not drawn): the “hERG current change (%, negative = inhibition) at 10uM” value was -41.6%.
Consider `CCOC(=O)c1cccc(NC(=O)/C=C/c2ccc([N+](=O)[O-])cc2)c1`, for which the “hERG current change (%, negative = inhibition) at 10uM” value is on record as -17.2%.
Next, `COc1ccc(Nc2nc(-c3ccccc3)c(C(=O)Nc3cccnc3)s2)cc1`: -8.53%.
